According to the supplement of paper PMC4604168 (melanoma cell lines):
This is one part of the list. Most values come without repeats; read them as rough.

Legend:
Test in all cases: cell count relative to DMSO control; melanoma cells; higher = more viable cells
Conditions in all cases: library dose: standard library concentration; 72 h
G361 = test system: G361
IPC-298 = test system: IPC-298
IST-MEL1 = test system: IST-MEL1
LB2518-MEL = test system: LB2518-MEL
LOXIMVI = test system: LOXIMVI
MEL-HO = test system: MEL-HO
MZ2-MEL = test system: MZ2-MEL
MeWo = test system: MeWo
RPMI7951 = test system: RPMI7951
RVH-421 = test system: RVH-421
SkMel28 = test system: SkMel28
SkMel2 = test system: SkMel2
SkMel30 = test system: SkMel30
SkMel5 = test system: SkMel5
UACC257 = test system: UACC257
UACC62 = test system: UACC62
WM115 = test system: WM115
WM1716 = test system: WM1716
WM1745 = test system: WM1745
WM3526 = test system: WM3526
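Note: cells treated in 1,536-well plates, then fixed and DAPI-stained, with nuclei counted from automated high-throughput microscope images.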

| SMILES | cell count (G361) | cell count (IPC-298) | cell count (IST-MEL1) | cell count (LB2518-MEL) | cell count (LOXIMVI) | cell count (MEL-HO) | cell count (MZ2-MEL) | cell count (MeWo) | cell count (RPMI7951) | cell count (RVH-421) | cell count (SkMel28) | cell count (SkMel2) | cell count (SkMel30) | cell count (SkMel5) | cell count (UACC257) | cell count (UACC62) | cell count (WM115) | cell count (WM1716) | cell count (WM1745) | cell count (WM3526) |
| --- | --- | --- | --- | --- | --- | --- | --- | --- | --- | --- | --- | --- | --- | --- | --- | --- | --- | --- | --- | --- |
| NC(=O)c1ccc(N(C(N)=O)c2c(F)cccc2F)nc1-c1ccc(F)cc1F + CC(C)(C)c1cnc(CSc2cnc(NC(=O)C3CCNCC3)s2)o1 [SNS-032] (first compound 2 µM, partner dose 0.05 µM) | 83.8% | 117% | 114% | 73.2% | 85.2% | 99% | 98.4% | 87.3% | 26.1% | 90% | 88.5% | 80% | 80.1% | 57.6% | 94.3% | 76.2% | 90.1% | 83.2% | 72.4% | 87.1% |
| NC(=O)c1ccc(N(C(N)=O)c2c(F)cccc2F)nc1-c1ccc(F)cc1F + Nc1cccc2c1CN(C1CCC(=O)NC1=O)C2=O [lenalidomide] (first compound 2 µM, partner dose 5 µM) | 98.8% | 93.2% | 86.8% | 82.4% | 72% | 98% | 92.2% | 101% | 93.1% | 91.6% | 88.6% | 114% | 123% | 111% | 92.1% | 79.6% | 73.9% | 99.9% | 88.6% | 94.8% |
| CCc1ccc(CCOc2ccc(CC3SC(=O)NC3=O)cc2)nc1 (stereo not given) [pioglitazone] + O=c1cc(-c2cccc3c2Sc2ccccc2S3)oc(N2CCOCC2)c1 [KU55933] (first compound 10 µM, partner dose 5 µM) | 77.7% | 96.5% | 109% | 111% | 96.5% | 84.3% | 104% | 92.4% | 74.3% | 93.3% | 69.2% | 79.9% | 94.9% | 80.2% | 86.3% | 94% | 93.5% | 87.4% | 89% | 76.9% |
| NC(=O)c1ccc(N(C(N)=O)c2c(F)cccc2F)nc1-c1ccc(F)cc1F + COc1ccc(Cl)c(Nc2nc3ccccc3nc2NS(=O)(=O)c2cccc(NC(=O)C(C)(C)N)c2)c1 [XL147] (first compound 2 µM, partner dose 4 µM) | 83.9% | 89.2% | 70.3% | 85.4% | 107% | 77.1% | 99.2% | 81.8% | 128% | 77.1% | 94.3% | 95.4% | 78% | 87.9% | 70.5% | 92.9% | 101% | 109% | 82.7% | 103% |
| CCCCCCCCc1ccc(CCC(N)(CO)CO)cc1 [fingolimod] + CNC(=O)c1cc(Oc2ccc(NC(=O)Nc3ccc(Cl)c(C(F)(F)F)c3)cc2)ccn1 [sorafenib] (first compound 10 µM, partner dose 2 µM) | 0.878% | 21.3% | 3.43% | 0.231% | 5.8% | 0.591% | 0.376% | 11.5% | 2.05% | 3.56% | 0.76% | 0.091% | 9.59% | 28.5% | 54% | 9.82% | 10.7% | 13.4% | 2.6% | 9.93% |
| NC(=O)c1ccc(N(C(N)=O)c2c(F)cccc2F)nc1-c1ccc(F)cc1F + Cc1cc(Nc2cc(N3CCN(C)CC3)nc(/C=C/c3ccccc3)n2)n[nH]1 [ENMD2076] (first compound 2 µM, partner dose 0.2 µM) | 92.3% | 107% | 120% | 71.3% | 93.5% | 108% | 110% | 98.7% | 94.9% | 91.8% | 45.3% | 93.4% | 86.6% | 75.6% | 87.3% | 94.5% | 63.5% | 103% | 83% | 75.4% |
| Cc1ccc(NC(=O)c2cccc(N(C)C)c2)cc1NC(=O)c1ccc(O)cc1 + COc1cc2ncnc(Nc3ccc(Oc4ccccc4)cc3)c2cc1OC [SrcI1] (first compound 10 µM, partner dose 10 µM) | 34.8% | 81.1% | 80.5% | 102% | 74.5% | 72.3% | 67.5% | 74.4% | 43.8% | 76% | 41.8% | 88.5% | 103% | 66.9% | 61.8% | 73.2% | 67.6% | 78.1% | 41.3% | 55.1% |
| CCc1ccc(CCOc2ccc(CC3SC(=O)NC3=O)cc2)nc1 (stereo not given) [pioglitazone] + O=C(Nc1ccccc1)c1cc([N+](=O)[O-])ccc1Cl [GW9662] (first compound 10 µM, partner dose 10 µM) | 66% | 84.9% | 93.7% | 81.9% | 62.8% | 86.2% | 94.2% | 90.9% | 77.1% | 77.4% | 76.1% | 78.8% | 68.3% | 75.8% | 83.9% | 68.9% | 84.7% | 106% | 74.9% | 92.8% |
| CCc1ccc(CCOc2ccc(CC3SC(=O)NC3=O)cc2)nc1 (stereo not given) [pioglitazone] + Oc1nc(-c2ccc(C(F)(F)F)cc2)nc2c1CSCC2 [XAV939] (first compound 10 µM, partner dose 10 µM) | 94.9% | 88.3% | 95% | 93% | 99.9% | 93.6% | 79% | 99.4% | 66.9% | 95.2% | 67.5% | 95.6% | 90.6% | 82.3% | 76.8% | 115% | 102% | 77.7% | 70.7% | 97.2% |
| CN(NC(=O)CC(=O)NN(C)C(=S)c1ccccc1)C(=S)c1ccccc1 + O=C(O)C(=O)Nc1sc2c(c1C(=O)O)CCNC2 [TCS401] (first compound 0.03 µM, partner dose 8.33333 µM) | 64.8% | 72% | 49.1% | 18.8% | 92.1% | 92.3% | 87% | 21.2% | 92.9% | 76.8% | 4.81% | 80.5% | 111% | 66.2% | 91.3% | 92.2% | 23.2% | 86.5% | 30.3% | 113% |
| NC(=O)c1ccc(N(C(N)=O)c2c(F)cccc2F)nc1-c1ccc(F)cc1F + Cc1ccc(NC(=O)c2cccc(N(C)C)c2)cc1NC(=O)c1ccc(O)cc1 [ZM336372] (first compound 2 µM, partner dose 10 µM) | 86.3% | 84.9% | 80.9% | 94.5% | 88.7% | 89% | 93.1% | 77.7% | 53% | 89.9% | 75% | 81.2% | 96.4% | 68.9% | 91.7% | 76.8% | 80.9% | 90% | 94.8% | 66.4% |
| CCCCCCCCc1ccc(CCC(N)(CO)CO)cc1 [fingolimod] + COc1cc2c(Oc3ccc4[nH]c(C)cc4c3F)ncnc2cc1OCCCN1CCCC1 [cediranib] (first compound 10 µM, partner dose 2 µM) | 0.911% | 33% | 27.6% | 0.339% | 7.38% | 0.895% | 1.3% | 14.1% | 1.26% | 7.37% | 1.19% | 0.446% | 11.6% | 38.3% | 64.3% | 11.4% | 10.5% | 16.7% | 3.9% | 11.3% |
| NC(=O)c1ccc(N(C(N)=O)c2c(F)cccc2F)nc1-c1ccc(F)cc1F + CN1CCN(c2ccc3nc(-c4c(N)c5c(F)cccc5[nH]c4=O)[nH]c3c2)CC1 [Dovitinib] (first compound 2 µM, partner dose 0.5 µM) | 73.1% | 82.1% | 74.8% | 52.4% | 200% | 80.2% | 66.8% | 41.8% | 123% | 86% | 65.7% | 70.7% | 78% | 58.3% | 94.1% | 59.1% | 53.4% | 104% | 57.5% | 59.7% |
| NC(=O)c1ccc(N(C(N)=O)c2c(F)cccc2F)nc1-c1ccc(F)cc1F + CNC(=O)c1cc(Oc2ccc(NC(=O)Nc3ccc(Cl)c(C(F)(F)F)c3)cc2)ccn1 [sorafenib] (first compound 2 µM, partner dose 2 µM) | 90.9% | 95.5% | 101% | 73.9% | 149% | 93.6% | 108% | 94.6% | 90% | 75.6% | 85.5% | 90.3% | 96.2% | 95.4% | 91.9% | 68.1% | 92.5% | 98% | 84% | 87.1% |
| NC(=O)c1ccc(N(C(N)=O)c2c(F)cccc2F)nc1-c1ccc(F)cc1F + CO[C@@H]1[C@H](N(C)C(=O)c2ccccc2)C[C@H]2O[C@]1(C)n1c3ccccc3c3c4c(c5c6ccccc6n2c5c31)C(=O)NC4 [Midostaurin] (first compound 2 µM, partner dose 0.4 µM) | 45.1% | 63% | 71.8% | 73.5% | 48.5% | 76.6% | 68.9% | 68% | 53.9% | 50.1% | 58.6% | 60.7% | 70.1% | 48.3% | 78.8% | 85.8% | 54.2% | 38.7% | 54.3% | 81.8% |
| CCc1ccc(CCOc2ccc(CC3SC(=O)NC3=O)cc2)nc1 (stereo not given) [pioglitazone] + CCCCCCCCCCCC1=C(O)C(=O)C=C(O)C1=O [Embelin] (first compound 10 µM, partner dose 6 µM) | 78.3% | 85.4% | 76.2% | 75.2% | 92.1% | 90.8% | 86.1% | 96.4% | 78.7% | 85.2% | 85.6% | 90.9% | 109% | 118% | 79.5% | 117% | 85.9% | 78.3% | 75.2% | 109% |
| NC(=O)c1ccc(N(C(N)=O)c2c(F)cccc2F)nc1-c1ccc(F)cc1F + C[C@]1(O)C[C@@H](c2nc(-c3ccc4ccc(-c5ccccc5)nc4c3)c3c(N)nccn32)C1 [OSI906] (first compound 2 µM, partner dose 2 µM) | 80.1% | 97.2% | 101% | 87% | 37.4% | 102% | 97.7% | 79.1% | 75.8% | 96.8% | 84.2% | 81.7% | 102% | 86% | 87.8% | 90.2% | 86.3% | 98.7% | 75.4% | 81% |
